This is an account of results in patent US7745575B1 (Cellpep Pharma Inc., priority 2004, dated 2010).

Experiment [1] has as its target mKv1.1 (mouse (only by the printed prefix m)) (UniProt P16388).
The target of experiment [2] is hIK1 (human (only by the printed prefix h)) (UniProt O15554).
In experiment [3] the target is hKv1.2 (human (only by the printed prefix h)) (UniProt P16389).
In experiment [4] the target is hKv3.2 (human (only by the printed prefix h)) (UniProt Q96PR1).
Experiment [5] concerns the target mKv1.3 (mouse (only by the printed prefix m)) (UniProt P16390).
Experiment [6] addresses mKv1.3 (mouse (only by the printed prefix m), UniProt P16390). Briefly: cell-based or functional assay.
For experiment [7], the target named is T1, hKv3.2 (human (only by the printed prefix h), UniProt Q96PR1).
T1 sequence: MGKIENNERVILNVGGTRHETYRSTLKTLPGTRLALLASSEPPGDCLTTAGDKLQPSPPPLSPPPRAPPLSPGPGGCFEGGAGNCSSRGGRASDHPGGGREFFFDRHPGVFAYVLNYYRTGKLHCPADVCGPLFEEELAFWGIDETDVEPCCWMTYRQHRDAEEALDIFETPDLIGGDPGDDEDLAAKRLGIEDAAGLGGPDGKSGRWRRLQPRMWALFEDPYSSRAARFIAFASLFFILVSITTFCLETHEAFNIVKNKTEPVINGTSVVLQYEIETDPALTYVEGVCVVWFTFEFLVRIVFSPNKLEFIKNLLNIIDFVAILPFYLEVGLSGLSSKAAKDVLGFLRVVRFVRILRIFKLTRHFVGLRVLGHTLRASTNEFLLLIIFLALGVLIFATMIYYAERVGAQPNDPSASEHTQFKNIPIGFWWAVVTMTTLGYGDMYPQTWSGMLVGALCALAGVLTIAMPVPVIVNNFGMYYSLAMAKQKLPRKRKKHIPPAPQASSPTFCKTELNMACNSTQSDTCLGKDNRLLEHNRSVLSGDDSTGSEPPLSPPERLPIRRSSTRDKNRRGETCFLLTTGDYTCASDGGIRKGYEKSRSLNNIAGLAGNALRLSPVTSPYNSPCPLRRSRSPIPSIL
Briefly: cell-based or functional assay.

The target in experiment [8] is mKv1.1 (mouse (only by the printed prefix m), UniProt P16388). Briefly: cell-based or functional assay.
Experiment [9] concerns the target hKv1.2 (human (only by the printed prefix h), UniProt P16389). Briefly: cell-based or functional assay.
Experiment [10] addresses hIK1 (human (only by the printed prefix h), UniProt O15554). Briefly: cell-based or functional assay.

Ends that are not written are not given here. Where only a bound is given, the exact number is not on record here.

Consider [Δ^36-38]-AOsK1 (peptide), for which the ID50 was 366 nM in experiment [1]; above 1000 nM in [2]; above 1000 nM in experiment [3]; above 1000 nM in experiment [4]; 1.85 nM in [5].
On to [Y^36]-AOsK1 (peptide), for which the ID50 in experiment [1] was determined as 34.4 nM; in [2], 885 nM; in experiment [3] it was 232 nM; in experiment [5] it was 0.122 nM.
Regarding Ac-GVIINVKCKISKQCLKPCRDAGMRFGKCMNGKCHCTPK (ends and bridges not checked) [Ac-[K^12,R^19]-AOsK1], the ID50 in experiment [6] came out at 0.09 nM; in experiment [7], 1500 nM; in experiment [8] it was 2.76 nM; in experiment [9] it was 101 nM.
In the same order, the values of GVIINVKCKISRQCLKPCKDAGMRFGKCMNRKCHCTPK (ends and bridges not checked; cysteine pairing not given here) [[R^31]-AOsK1] are 0.045 nM, 220 nM, 0.28 nM and 0.43 nM.
Consider GVIINVKCKISRQCLKPCKDAGMRNGKCMNGKCHCTPK (ends and bridges not checked; cysteine pairing not given here) [[N^25]-AOsK1], for which the ID50 in experiment [6] was 5.4 nM; in experiment [7], above 1000 nM; in experiment [8], 791 nM; in experiment [9], 212 nM.
Regarding GVIINVKCKISPQCLKPCKDAGMRFGKCMNGKCHCTPK (ends and bridges not checked; cysteine pairing not given here) [[P^12]-AOsK1], the ID50 is 0.059 nM in [6], 2600 nM in experiment [10], 3.18 nM in experiment [8] and 196 nM in [9].
